System: Pseudoperonospora cubensis
Assay: Test for control effect on downy mildew of cucumber
Set-up: key: A: No infection.; B: Less than 25% of untreated plot; C: 25% or more to less than 50%, of untreated plot; D: 50% or more of untreated plot
Conditions: cucumber seedlings (sagami hanjiro), wettable powder at 500 ppm, 15 ml per pot; examined 7 days later
Procedure: Test for Control Effect on Downy Mildew of Cucumber
10 cucumber seeds (variety: sagami hanjiro) were sown in each of vinyl chloride resin made pots of 9 cm×9 cm and were allowed to germinate in a greenhouse for 7 days. The resulting cucumber young seedlings which reached a cotyledon stage were used as a sample plant. One kind of the wettable powders produced based on the Production Example 2 was diluted with water so as to give an active ingredient concentration of 500 ppm and the resulting solution was sprayed onto the sample plant in an amount of 15 ml per pot. The plant was air-dried and inoculated, by spraying, with a suspension of conidia of Pseudoperonospora cubensis. Immediately, the pot was placed in a wet house of 20° C. for 24 hours. Then, the pot was transferred into a greenhouse. 7 days later, the total diseased area of all the cotyledons in the pot was examined. The wettable powder used was evaluated according to the standard of Table 19.

## O=[N+]([O-])CCN1C(=S)c2ccccc2S1(=O)=O [compound 39]
  Evaluation (total diseased area of all the cotyledons): A

Source: patent publication US20060287375A1 (priority 2003, published 2006)
